The campaign covered roughly 150,000 compounds. About 540 (0.36%) showed an effect of 50% or more. The list shows a part of the results.
What follows are compounds tested on Plasmodium falciparum (assay: Primary screen in NF54 nanoGlo assay, in single point, at 2uM, 72h; a lower Z score goes with more inhibition). Conditions: timepoint 72 hour.
Type: functional, Erythrocyte

SMILES | % Inhibition | Z score
C[C@H](NCC(=O)N(C)C)c1ccccc1 | -5% | 1.09
Cc1n[nH]c(C)c1CCc1nncn1-c1cccnc1 | 7% | -1.19
Cc1cc(C)nc(N[C@H](c2ccc(OC(F)F)cc2)c2cc(C)sc2NC(=O)c2ccccc2)n1 | -7% | 1.3
CN1CC[C@H](C(=O)Nc2cccnc2Oc2ccccc2)CC1=O | -15% | 1.78
Cc1nnsc1CN(C)C(=O)c1sc(C(C)C)nc1C | -11% | 1.28
COC(=O)c1ccc(C(=O)N2CCC(N3C(=O)COCC3=O)CC2)cc1 | 15% | -1.96
O=C(OCC(=O)N1CCCC1)[C@H]1CCCN(c2nccs2)C1 | -4% | 0.37
COc1cccc(NC(=O)c2ccccc2C(=O)OCCN2CCOCC2)c1 | 38% | -1.5
CCCN1CCN(C(=O)c2cccc(N3CCN[C@H](c4ccccc4)C3)n2)CC1 | 8% | -0.76
Cc1nc(N2CCC(CNC(=O)[C@H]3CCOC3)CC2)c2ccsc2n1 | 6% | -1.19
CCC1(CO)CCN(C(=O)C2=Cc3ccccc3[C@H]2C)CC1 | -6% | 0.68
COC[C@H]1CN(C2CCC2)CC12CCN(C(=O)CCc1ccc(OC)cc1)CC2 | -9% | 1.08
CN(Cc1cccn1C)C(=O)NC1CCCCC1 | -7% | 1.23
c1nc(-c2ccc3c(c2)OCO3)n(C2CCCCC2)n1 | -6% | 0.81
CCN(C(=O)NC(C)CCc1ccc(OC)cc1)C(C)C(C)C (configuration not stated) | -3% | 0.28
Cc1nn(-c2ccc(Cl)c(Cl)c2)c(NC(=O)c2ccncc2Cl)c1C | -5% | 0.61

Source: ChEMBL document CHEMBL4888484, “Replenishing the malaria drug discovery pipeline: Screening and hit evaluation of the MMV Hit Generation Library 1 (HGL1) against asexual blood stage Plasmodium falciparum ,using a nano luciferase reporter read-out” (2022)
